Data reported in PMC7942396, “Drug Repurposing Screen for Compounds Inhibiting the Cytopathic Effect of SARS-CoV-2” (Frontiers in Pharmacology, 2021).
Counter-ions that a name gives are not always drawn. Like-named read-outs stand apart in the source and are kept apart here.

Experiments:
[1] = system: SARS-CoV-2 (USA_WA1/2020); test: microbe, parasite or virus in culture; format: cell-based; conditions: for Emax: Severe acute respiratory syndrome coronavirus 2, Vero C1008, read-out: CPE % Efficacy
[2] = in vitro; conditions: African green monkey
[3] = Severe acute respiratory syndrome coronavirus 2, Vero C1008, read-out: CPE EC50
[4] = Severe acute respiratory syndrome coronavirus 2, Vero C1008, 72 h, read-out: CPE EC50

Clc1ccc2c(c1)C(N1CCNCC1)=Nc1ccccc1O2 [Amoxapine]
EC50 [1, 3]: 8.91 µM

CN1[C@@H]2CC[C@H]1C[C@@H](OC(c1ccccc1)c1ccccc1)C2 [Benztropine mesylate]
EC50 ([1]; Severe acute respiratory syndrome coronavirus 2, Vero C1008, read-out: CPE EC50 (uM)): 14.1 µM

CN1CCC[C@@H]1CCO[C@](C)(c1ccccc1)c1ccc(Cl)cc1 [Clemastine fumarate, reference compound]
EC50 [1, 4]: 7.9 µM
Emax [1]: 96%

CN(C)CCCN1c2ccccc2CCc2ccc(Cl)cc21 [Clomipramine hydrochloride]
EC50 [1, 3]: 10 µM

CN1CCC(=C2c3ccccc3C=Cc3ccccc32)CC1 [Cyproheptadine hydrochloride]
EC50 [1, 3]: 11.2 µM

Clc1ccc2c(c1)CCc1cccnc1C2=C1CCNCC1 [Desloratadine]
Emax [1]: 69%
EC50 [1, 3]: 10 µM

Fc1ccc(C(c2ccc(F)cc2)N2CCN(C/C=C/c3ccccc3)CC2)cc1 [Flunarizine, reference compound]
EC50 [1, 4]: 10 µM

C[C@@H]1C[C@H](N)C[C@H](c2ccncc2NC(=O)c2ccc(F)c(-c3c(F)cccc3F)n2)C1 [LGH-447]
Emax [1]: 91.4%
CC50 [2]: 12.6 µM
cytotoxicity [2]: 38.3%

CN1CCN(CCCN2c3ccccc3Sc3ccc(Cl)cc32)CC1 [Prochlorperazine dimaleate]
EC50 [1, 3]: 8.91 µM
